From PubChem BioAssay AID1159614 (National Center for Advancing Translational Sciences (NCATS), 2016)
Out of some 45,000 compounds screened, about 65 (0.1%) were called active. Calls come from the whole dose curve; as a rule, active = well fitted activation curve with a large enough effect; inconclusive = small, poorly fitted or top-dose-only effect; inactive = no such curve, though single readings can be large or run the other way. Some of the results follow.

Target: Galactocerebrosidase (Homo sapiens) (UniProt P54803)
Sequence of UniProt P54803 (P54803 whole entry, looked up): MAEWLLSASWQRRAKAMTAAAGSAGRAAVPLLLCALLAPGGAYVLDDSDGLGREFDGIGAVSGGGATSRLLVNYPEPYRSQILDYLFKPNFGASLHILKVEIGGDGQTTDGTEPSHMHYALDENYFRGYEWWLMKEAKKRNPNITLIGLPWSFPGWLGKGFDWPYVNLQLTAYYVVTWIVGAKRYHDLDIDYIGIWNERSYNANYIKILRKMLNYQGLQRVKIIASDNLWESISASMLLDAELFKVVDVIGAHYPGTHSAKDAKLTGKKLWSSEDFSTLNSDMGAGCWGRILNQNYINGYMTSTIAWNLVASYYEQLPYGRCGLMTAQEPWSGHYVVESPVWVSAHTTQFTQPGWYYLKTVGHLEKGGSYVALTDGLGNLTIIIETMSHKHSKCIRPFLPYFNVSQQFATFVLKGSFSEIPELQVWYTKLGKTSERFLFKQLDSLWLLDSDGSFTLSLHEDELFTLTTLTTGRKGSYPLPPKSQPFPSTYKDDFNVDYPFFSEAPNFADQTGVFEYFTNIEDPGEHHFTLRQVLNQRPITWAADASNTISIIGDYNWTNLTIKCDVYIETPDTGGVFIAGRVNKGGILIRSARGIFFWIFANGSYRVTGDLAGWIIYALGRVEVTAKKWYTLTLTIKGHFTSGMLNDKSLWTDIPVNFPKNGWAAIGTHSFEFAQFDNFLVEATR
Test: A Novel Cell-Based Assay to Identify Small Molecules for B -Galactocerebrosidase; note: 0% is about no effect; nearly all actives have a fitted effect of over 65% in size
Settings: 145M-Twi-hGALC-G270D cells (Twitcher mouse brain line with human GALC G270D), HMU-beta-Gal fluorescence, 48 h; series mostly up to 57.5 µM; activation: at the top concentration
Summary of the method: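 Live 145M-Twi cells (Twitcher mouse brain-derived, GALC-null) stably expressing human GALC-G270D, with a wild-type GALC line, were compound-treated. Residual GALC activity was then read as fluorescence from 0.1 mM final HMU-β-gal at pH 5.2; higher signal means activation.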

activation, inactive:
Cc1ccc(CNS(=O)(=O)c2ccc3c(c2)CC(C)N3C(=O)C2CCC2)cc1 (stereo not given) -20%
COC(=O)c1c(-c2cccs2)csc1NC(=O)c1ccc(C)cc1 -22.2%
O=C(Cn1c(-c2cccs2)cc2ccccc21)N1CCN(c2ccc(F)cc2)CC1 -11%
Cc1ccccc1NC(=O)CCn1nc(-c2ccccc2)c2ccccc2c1=O -11.6%
CCOc1ccc(Sc2cc(C(=O)NCc3ccccc3Cl)c3ccccc3n2)cc1 -7.79%
COCCNC(=O)CN1C(=O)COc2ccc(S(=O)(=O)N3CCCC3)cc21 8.93%
CCN(CC)CCOC(=O)c1ccc(NC(=O)c2cc3cc(OC)ccc3oc2=O)cc1 -1.94%
CCc1ccc(NC(=O)Cn2c(=O)n(CCCC(=O)NCCc3ccc(OC)c(OC)c3)c(=O)c3ccccc32)cc1 -9.61%
CCOC(=O)N1CCc2c(sc3c2C(=O)NC(c2ccc(C(=O)OC)cc2)N3)C1 (stereo not given) -20.6%
Cc1nnc(SCC(=O)Nc2ccc(N(C)C)cc2)[nH]c1=O -17.3%
Cc1c(Cl)cccc1-n1nc(C)c2c(C)cc(=O)n(CC(=O)N3CCCc4ccccc43)c21 -36.8%
CCOC(=O)c1ccc2c(c1)N(Cc1ccc(F)cc1Cl)C(=O)c1ccccc1S2 1.67%
Cc1cnc(=O)[nH]c1SCC(=O)Nc1cc(C(F)(F)F)ccc1Cl -9.09%
Cc1cc2oc3c(c(=O)c2cc1C)C(c1ccc(C(C)C)cc1)N(c1nc(C)c(C)s1)C3=O (stereo not given) -14.9%
CCCOc1ccc(CNC(=O)C2CCN(C(=O)c3sccc3-n3cccc3)CC2)cc1 1.78%
CCCNC(=O)C1CCN(c2nc3ccc(C)cc3[nH]2)CC1 4.67%
COc1ccc(-c2nc3ccccc3n3c(-c4ccc(OC)cc4)c4c(=O)n(C)c(=O)n(C)c4c23)cc1 -19%
Cc1ccc(CNC(=O)CCCN2C(=O)CCn3nc(-c4cccn4C)cc32)cc1 -13%
Cc1cccc(CN2CCN(CC(=O)Nc3c(C)cccc3C)S2(=O)=O)c1 -7.7%
COc1cc(CNc2ccc3[nH]c(=O)[nH]c3c2)cc(Br)c1OCc1ccccc1F -10.1%
COCCNC(=O)CSc1nc(-c2ccccc2)[nH]c1-c1ccc(C)cc1 -10.3%
Cc1ccc(C)n1-c1nnc(N2CCCC(C(=O)NCc3cccc(Br)c3)C2)s1 (stereo not given) -7.34%
COc1cccc(NC(=O)N(Cc2cn(C)c3ccccc23)C2CCCCCC2)c1 -2.41%
CCN1CCN(c2cc(C)c3cc(NC(=O)/C=C/c4ccc(C)cc4)ccc3n2)CC1 -24.4%
Cc1cccc(C(=O)Nc2ccc(N3CCC(N4CCCCC4)CC3)c(C(=O)O)c2)c1 -0.64%
Cc1ccc(CNC(=O)CCc2c(C)nc3c4c(C)cc(C)nc4nn3c2C)cc1 -10.8%
Cc1ccc(Cl)cc1NC(=O)CC1Sc2ccccc2NC1=O (stereo not given) -13%
NC1=NC(c2cc(F)cc(F)c2)n2c(nc3ccccc32)N1 (stereo not given) -6.73%
CC1=C(C(=O)NCc2ccc(Cl)cc2)C2(CCC(C)CC2)OC1=O (stereo not given) -9.94%
O=S(=O)(Nc1ccc(C(F)(F)F)cc1)c1ccc2c(c1)OCCO2 -10.7%
COc1ccccc1N1CCN(Cc2nnc(-c3ccccc3C)o2)CC1 -13.8%
CCOC(=O)c1cccc(NC(=O)c2ccc3nc(CCc4ccccc4)oc3c2)c1 1.83%
O=C(c1ccc2c(c1)N(Cc1ccc(Cl)cc1)C(=O)c1ccccc1S2=O)N1CCC(Cc2ccccc2)CC1 (stereo not given) -10.4%
O=C(NCCCc1nc2ccccc2n1Cc1cccc(Cl)c1)C1CCCCC1 -1.34%
COCCCn1c(=O)c2sccc2n2c(CCCC(=O)Nc3cccc(C(F)(F)F)c3)nnc12 -7.66%
CC1=C(C(=O)Nc2ccccc2)C(c2ccc[nH]2)n2ncnc2N1 (stereo not given) -13.5%
CCCCOC(=O)c1ccc(NC(=O)c2csnn2)cc1 -3.16%
Cc1ccccc1OCC(=O)Nc1ccc2nc(SCC(N)=O)sc2c1 -10.8%
Cc1c(Cl)cccc1NC(=O)Cn1nnc(-c2nc(-c3ccccc3)no2)c1N -4.98%
CCCOc1ccc(C(=O)Nc2ccc3oc(-c4ccc(N(C)C)cc4)nc3c2)cc1 -12.8%
Cc1cccc(C)c1NC(=O)CSc1nc2ccccc2c2nc(CCc3c(C)n[nH]c3C)nn12 -2.22%
COC(=O)c1ccc(NC(=O)C(=O)NCC(c2cccnc2)N2CCc3ccccc32)cc1 (stereo not given) -14.3%
CCn1cc(C(=O)NCCc2ccc(C)cc2)c(=O)c2cc(S(=O)(=O)N3CCC(C)CC3)ccc21 -33.2%
CCCOc1ccc(OC(=O)c2cn(-c3ccc(OC)cc3)c(=O)c3ccccc23)cc1 -3.27%
CCC1=C[C@@H]2CN(C1)Cc1c([nH]c3ccccc13)[C@@](C(=O)OC)(c1cc3c(cc1OC)N(C)[C@H]1[C@@](O)(C(=O)OC)[C@H](OC(C)=O)[C@]4(CC)C=CCN5CC[C@]31[C@@H]54)C2 -9.35%
Cc1ccc(CCNC(=O)CCS(=O)(=O)c2cc3c(cc2Cl)NC(=O)CO3)cc1 -11.7%
CC(C)NC(=O)CN1C(=O)c2cccnc2Sc2ccccc21 -2.45%
CC(=O)c1cccc(NC(=O)c2cc(C)nc3c2c(C)nn3-c2cccc(Cl)c2C)c1 -11%
COc1ccc(CNC(=O)C2=CC(c3cccc(OC)c3)=NS(=O)(=O)N2C)cc1 -7.82%
O=C(OCc1cc(=O)n2nc(C3CC3)sc2n1)c1ccccc1Cl -10.3%
Cc1cccc(N2CCN(C(=O)c3ccc4c(Cl)c5c(nc4c3)CCCC5)CC2)c1C -15.5%
CCOc1ccccc1NC(=O)C1=C(C)Nc2ncnn2C1c1cccs1 (stereo not given) 9.06%
COc1ccc(NC(=O)Cn2nc(C(F)(F)F)c3c2CCCC3)cc1OC -9.67%
COc1cccc(-c2nn3c(=O)cc(CN4CCN(C(=O)/C=C/c5ccccc5)CC4)nc3s2)c1 -8.18%
COc1cc(NC(=O)c2nc3ccccc3n(C)c2=O)cc(OC)c1OC -10.7%
Cc1ccc(NC(=O)Cn2c(=O)n(Cc3ccc(C(=O)NCc4ccc5c(c4)OCO5)cc3)c(=O)c3ccccc32)cc1 -13.2%
COc1ccc(NC(=O)c2csnn2)cc1 -3.03%
CCOc1ccc(CNC(=O)CCS(=O)(=O)c2ccc3c(c2)oc(=O)n3C)cc1 -26%
COC(=O)c1c(-c2ccc(Cl)cc2)noc1N1CCN(c2ccc(F)cc2)CC1 0.747%
Cc1ccc(-c2nc(-c3cc4cccc(OCc5ccccc5F)c4oc3=O)no2)cc1 -6.73%
